{
  "source": "the supplement of paper PMC8728848",
  "binders": {"B1": {"name": "AAL (Agrocybe aegerita), Q6WY08 (protein)", "chain": "MQGVNIYNISAGTSVDLAAPVTTGDIVTFFSSALNLNAGAGNPNNTTLNLFAENGAYLLHIAHRLQENVIIFNSRQPDGPWLVEQRVSDVANQFAGIDGKAMVTVFDHGDKYQVVINEKTVIQYTKQISGLTLSLSYNATEETSIFSTVVEAVTYTGLALEHHHHHH"}},
  "experiment_in_all_cases": "glycan array binding signal (z-score within array); higher = stronger binding",
  "conditions_in_all_cases": "glycan notation: IUPAC condensed, linker removed; mutation: F63H",
  "key": {"[1]": {"biological_target": "Gal3S(b1-3)[Fuc(a1-4)]GlcNAc", "outline": "(§1)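 Glycan array data came from 3228 arrays in the Consortium for Functional Glycomics database, and only arrays with an available protein sequence were kept. Glycan names were put into IUPAC-condensed notation, and columns mapping to the same glycan were averaged. The binding signal is a within-array Z-score, averaged across arrays of one protein sequence run at different concentrations or buffers and across linkers. A negative Z-score can be read as non-binding.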"}, "[2]": {"biological_target": "Gal3S(b1-4)Glc", "outline": "as §1"}, "[3]": {"biological_target": "Gal3S(b1-4)Glc6S", "outline": "as §1"}, "[4]": {"biological_target": "Gal3S(b1-4)GlcNAc", "outline": "as §1"}, "[5]": {"biological_target": "Gal3S(b1-4)[Fuc(a1-3)]Glc6S", "outline": "as §1"}, "[6]": {"biological_target": "Gal3S(b1-4)[Fuc(a1-3)]GlcNAc", "outline": "as §1"}, "[7]": {"biological_target": "Gal3S(b1-4)[Fuc(a1-3)]GlcNAc6S", "outline": "as §1"}, "[8]": {"biological_target": "Gal3S4S(b1-4)GlcNAc", "outline": "as §1"}, "[9]": {"biological_target": "Gal3S6S(b1-4)GlcNAc", "outline": "as §1"}, "[10]": {"biological_target": "Gal3S6S(b1-4)GlcNAc6S", "outline": "as §1"}, "[11]": {"biological_target": "Gal4S(b1-4)GlcNAc", "outline": "as §1"}, "[12]": {"biological_target": "Gal4S6S(b1-4)GlcNAc", "outline": "as §1"}, "[13]": {"biological_target": "Gal6P(b1-4)GlcNAc", "outline": "as §1"}, "[14]": {"biological_target": "Gal6S(b1-3)GlcNAc", "outline": "as §1"}, "[15]": {"biological_target": "Gal6S(b1-3)GlcNAc6S", "outline": "as §1"}, "[16]": {"biological_target": "Gal6S(b1-4)Glc", "outline": "as §1"}, "[17]": {"biological_target": "Gal6S(b1-4)Glc6S", "outline": "as §1"}, "[18]": {"biological_target": "Gal6S(b1-4)GlcNAc", "outline": "as §1"}, "[19]": {"biological_target": "Gal6S(b1-4)GlcNAc6S", "outline": "as §1"}, "[20]": {"biological_target": "GalNAc(a1-3)Gal", "outline": "as §1"}, "[21]": {"biological_target": "GalNAc(a1-3)GalNAc", "outline": "as §1"}, "[22]": {"biological_target": "GalNAc(a1-3)GalNAc(b1-3)Gal(a1-4)Gal(b1-4)Glc", "outline": "as §1"}, "[23]": {"biological_target": "GalNAc(a1-3)GalNAc(b1-3)Gal(a1-4)Gal(b1-4)GlcNAc", "outline": "as §1"}, "[24]": {"biological_target": "GalNAc(b1-3)Gal", "outline": "as §1"}, "[25]": {"biological_target": "GalNAc(b1-3)Gal(a1-4)Gal(b1-4)GlcNAc", "outline": "as §1"}, "[26]": {"biological_target": "GalNAc(b1-3)Gal(a1-4)Gal(b1-4)GlcNAc(b1-3)Gal(b1-4)Glc", "outline": "as §1"}, "[27]": {"biological_target": "GalNAc(b1-3)Gal(a1-6)Gal(b1-4)Glc", "outline": "as §1"}, "[28]": {"biological_target": "GalNAc(b1-3)GalNAc", "outline": "as §1"}, "[29]": {"biological_target": "GalNAc(b1-3)GlcNAc", "outline": "as §1"}, "[30]": {"biological_target": "GalNAc(b1-4)Gal(b1-4)Glc", "outline": "as §1"}, "[31]": {"biological_target": "GalNAc(b1-4)GlcNAc", "outline": "as §1"}, "[32]": {"biological_target": "GalNAc(b1-4)GlcNAc(b1-2)Man", "outline": "as §1"}, "[33]": {"biological_target": "GalNAc(b1-4)GlcNAc(b1-2)Man(a1-3)[GalNAc(b1-4)GlcNAc(b1-2)Man(a1-6)]Man(b1-4)GlcNAc(b1-4)GlcNAc", "outline": "as §1"}, "[34]": {"biological_target": "GalNAc(b1-4)GlcNAc(b1-3)GalNAc(b1-4)GlcNAc", "outline": "as §1"}, "[35]": {"biological_target": "GalNAc(b1-4)GlcNAc6S", "outline": "as §1"}, "[36]": {"biological_target": "GalNAc(b1-6)GalNAc", "outline": "as §1"}, "[37]": {"biological_target": "GalNAc3S(b1-4)GlcNAc", "outline": "as §1"}, "[38]": {"biological_target": "GalNAc3S(b1-4)GlcNAc3S", "outline": "as §1"}, "[39]": {"biological_target": "GalNAc3S(b1-4)[Fuc(a1-3)]GlcNAc", "outline": "as §1"}, "[40]": {"biological_target": "GalNAc4S6S(b1-4)GlcNAc", "outline": "as §1"}, "[41]": {"biological_target": "GalNAc6S(b1-4)GlcNAc", "outline": "as §1"}, "[42]": {"biological_target": "Glc(a1-4)Glc", "outline": "as §1"}, "[43]": {"biological_target": "Glc(a1-4)Glc(a1-4)Glc(a1-4)Glc", "outline": "as §1"}, "[44]": {"biological_target": "Glc(a1-6)Glc(a1-6)Glc", "outline": "as §1"}, "[45]": {"biological_target": "Glc(a1-6)Glc(a1-6)Glc(a1-6)Glc", "outline": "as §1"}},
  "note": "Some of the results follow.",
  "data": [
    {"binder": "B1", "values": [
      {"measurement": "glycan array binding signal (z-score)", "setting": "[1]", "value": -0.366},
      {"measurement": "glycan array binding signal (z-score)", "setting": "[2]", "value": 0.114},
      {"measurement": "glycan array binding signal (z-score)", "setting": "[3]", "value": 0.157},
      {"measurement": "glycan array binding signal (z-score)", "setting": "[4]", "value": -0.435},
      {"measurement": "glycan array binding signal (z-score)", "setting": "[5]", "value": 0.621},
      {"measurement": "glycan array binding signal (z-score)", "setting": "[6]", "value": 0.004},
      {"measurement": "glycan array binding signal (z-score)", "setting": "[7]", "value": 0.23},
      {"measurement": "glycan array binding signal (z-score)", "setting": "[8]", "value": -0.442},
      {"measurement": "glycan array binding signal (z-score)", "setting": "[9]", "value": 0.373},
      {"measurement": "glycan array binding signal (z-score)", "setting": "[10]", "value": 0.234},
      {"measurement": "glycan array binding signal (z-score)", "setting": "[11]", "value": -0.569},
      {"measurement": "glycan array binding signal (z-score)", "setting": "[12]", "value": 0.214},
      {"measurement": "glycan array binding signal (z-score)", "setting": "[13]", "value": -0.047},
      {"measurement": "glycan array binding signal (z-score)", "setting": "[14]", "value": 0.062},
      {"measurement": "glycan array binding signal (z-score)", "setting": "[15]", "value": -0.041},
      {"measurement": "glycan array binding signal (z-score)", "setting": "[16]", "value": 0.11},
      {"measurement": "glycan array binding signal (z-score)", "setting": "[17]", "value": 0.037},
      {"measurement": "glycan array binding signal (z-score)", "setting": "[18]", "value": -0.062},
      {"measurement": "glycan array binding signal (z-score)", "setting": "[19]", "value": 0.152},
      {"measurement": "glycan array binding signal (z-score)", "setting": "[20]", "value": -0.08},
      {"measurement": "glycan array binding signal (z-score)", "setting": "[21]", "value": -0.062},
      {"measurement": "glycan array binding signal (z-score)", "setting": "[22]", "value": 0.167},
      {"measurement": "glycan array binding signal (z-score)", "setting": "[23]", "value": -0.194},
      {"measurement": "glycan array binding signal (z-score)", "setting": "[24]", "value": -0.032},
      {"measurement": "glycan array binding signal (z-score)", "setting": "[25]", "value": 0.48},
      {"measurement": "glycan array binding signal (z-score)", "setting": "[26]", "value": -0.28},
      {"measurement": "glycan array binding signal (z-score)", "setting": "[27]", "value": 0.457},
      {"measurement": "glycan array binding signal (z-score)", "setting": "[28]", "value": -0.564},
      {"measurement": "glycan array binding signal (z-score)", "setting": "[29]", "value": -0.08},
      {"measurement": "glycan array binding signal (z-score)", "setting": "[30]", "value": 0.241},
      {"measurement": "glycan array binding signal (z-score)", "setting": "[31]", "value": 0.406},
      {"measurement": "glycan array binding signal (z-score)", "setting": "[32]", "value": -0.335},
      {"measurement": "glycan array binding signal (z-score)", "setting": "[33]", "value": -0.287},
      {"measurement": "glycan array binding signal (z-score)", "setting": "[34]", "value": -0.049},
      {"measurement": "glycan array binding signal (z-score)", "setting": "[35]", "value": 0.403},
      {"measurement": "glycan array binding signal (z-score)", "setting": "[36]", "value": -0.338},
      {"measurement": "glycan array binding signal (z-score)", "setting": "[37]", "value": 0.412},
      {"measurement": "glycan array binding signal (z-score)", "setting": "[38]", "value": 0.59},
      {"measurement": "glycan array binding signal (z-score)", "setting": "[39]", "value": -0.332},
      {"measurement": "glycan array binding signal (z-score)", "setting": "[40]", "value": 0.108},
      {"measurement": "glycan array binding signal (z-score)", "setting": "[41]", "value": -0.052},
      {"measurement": "glycan array binding signal (z-score)", "setting": "[42]", "value": -0.457},
      {"measurement": "glycan array binding signal (z-score)", "setting": "[43]", "value": 0.261},
      {"measurement": "glycan array binding signal (z-score)", "setting": "[44]", "value": -0.347},
      {"measurement": "glycan array binding signal (z-score)", "setting": "[45]", "value": -0.408}
    ]}
  ]
}
